Data reported in the supplement of paper PMC3334620.
Whole data set: some 33,000 sequences, median “E-score (-0.5 to 0.5)” near -0.011, cut for the highest 2% near 0.28. The list shows a part of the results.

molecular target: T1, Gcr1 (UniProt P07261); assay: PBM E-score (8-mer binding enrichment) (E-score (-0.5 to 0.5)); higher = stronger / more preferred TF binding; most listed sequences are background and not binding sites; details: protein concentration: 100 nM; construct: GST-full length
T1 sequence: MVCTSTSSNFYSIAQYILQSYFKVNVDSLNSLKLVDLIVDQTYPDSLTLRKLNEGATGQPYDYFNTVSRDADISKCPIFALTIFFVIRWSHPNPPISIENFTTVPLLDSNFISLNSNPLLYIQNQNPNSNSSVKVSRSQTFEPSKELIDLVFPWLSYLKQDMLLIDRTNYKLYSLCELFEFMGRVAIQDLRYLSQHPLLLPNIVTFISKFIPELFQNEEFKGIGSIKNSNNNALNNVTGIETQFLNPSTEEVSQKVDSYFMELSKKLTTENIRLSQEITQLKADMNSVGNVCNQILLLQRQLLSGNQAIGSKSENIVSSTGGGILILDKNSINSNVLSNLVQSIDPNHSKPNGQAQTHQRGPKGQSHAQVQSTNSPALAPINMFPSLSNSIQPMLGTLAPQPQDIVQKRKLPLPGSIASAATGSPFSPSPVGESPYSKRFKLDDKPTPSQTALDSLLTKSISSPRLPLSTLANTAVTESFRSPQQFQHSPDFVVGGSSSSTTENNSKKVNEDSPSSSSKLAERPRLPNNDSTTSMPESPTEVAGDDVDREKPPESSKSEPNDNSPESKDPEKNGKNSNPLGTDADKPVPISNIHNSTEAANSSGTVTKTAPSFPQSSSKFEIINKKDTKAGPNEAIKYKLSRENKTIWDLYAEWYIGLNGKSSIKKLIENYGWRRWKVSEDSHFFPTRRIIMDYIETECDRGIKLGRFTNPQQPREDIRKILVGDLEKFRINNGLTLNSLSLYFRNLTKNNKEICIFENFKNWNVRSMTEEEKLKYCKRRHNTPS
Protocol: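 Universal 'all 10-mer' protein binding microarrays (Agilent AMADID 015681) probed with GST-tagged S. cerevisiae TFs (full-length or DBD) made by in vitro transcription/translation (PURExpress), about 100-200 nM. Bound TF was detected with fluorescent anti-GST. Each ungapped 8-mer (which stands for itself and its reverse complement) is scored by the PBM enrichment score (E-score), a modified Wilcoxon-Mann-Whitney statistic from -0.5 to +0.5, computed with the Universal PBM Analysis Suite. Scale: above 0.35 generally sequence-specific binding.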

| Sequence | PBM E-score |
| --- | --- |
| ATATTGGC | 0.15 |
| CACCTGCG | -0.0735 |
| GCATAAAA | -0.0293 |
| AAGCACCT | 0.106 |
| CCGGGTGA | -0.0768 |
| AAGTGCGT | 0.00837 |
| CTCGGCAG | 0.11 |
| TCAGGTCA | -0.241 |
| ATGTGAGC | -0.164 |
| AAGCTTTG | -0.142 |
| AAGATAGC | -0.101 |
| CGTCCCGC | -0.0165 |
| AACGTTCG | -0.224 |
| ACTCGTGA | -0.0087 |
| ATGCAGTA | -0.0404 |
| ACTTTAAT | 0.0661 |
| AACTTCCG | 0.267 |
| ATCCGCTG | 0.0205 |
| ACCGTCCC | -0.0913 |
| CTTCTAGA | 0.231 |
| GAAAGAGA | -0.038 |
| GTATTCAA | 0.103 |
| AACAGAAT | 0.161 |
| ACGGAGCG | 0.0368 |
| CTCTCCGA | 0.00694 |

| Sequence | PBM E-score |
| --- | --- |
| ACACTGCT | -0.245 |
| GTACCCGA | 0.0523 |
| AGAAATAG | 0.119 |
| CTAAATCA | 0.121 |
| CATTTTGG | 0.264 |
| GATACACA | 0.124 |
| GTGGCATA | -0.106 |
| AGTCGAAA | 0.0193 |
| CCTACATA | 0.209 |
| GGGTCTGA | -0.18 |
| AGGTTCTG | 0.094 |
| TACTTGCA | 0.00277 |
| ACGGTACG | -0.104 |
| ACTTCTAA | 0.0859 |
| GCCCGTCC | -0.184 |
| ACTGAGAG | -0.0975 |
| AGCGATTG | -0.0464 |
| GAGAAGAA | 0.0707 |
| TGCCAGAA | 0.249 |
| ATATGCCG | -0.0206 |
| AGTAGCTC | 0.0884 |
| GACAGTCA | -0.00968 |
| TAGTTTCA | 0.0381 |
| GTAAATAA | 0.0571 |
| CACAGACG | -0.15 |

| Sequence | PBM E-score |
| --- | --- |
| GACATAAA | 0.121 |
| GTCCTGTA | 0.168 |
| GTATCCTA | 0.0709 |
| AGGACATA | -0.0972 |
| GGAACTCC | 0.0709 |
| ACTGGACT | 0.134 |
| CACCTCGG | 0.0439 |
| TACATGAA | 0.0327 |
| GTGTAAAC | 0.0135 |
| ATGTATCG | -0.0321 |
| ATCAGGTG | -0.228 |
| CTAAAGCA | -0.0648 |
| AAGGCATC | 0.0959 |
| CGAGTGCG | -0.0321 |
| AGAGACTC | -0.046 |
| CTAGAGTC | -0.041 |
| CTTCTTCC | 0.0494 |
| TGAGATCA | -0.0605 |
| AGCCAACC | -0.129 |
| AAGACGAC | -0.0134 |
| ACGTTTGG | 0.0916 |
| ACACTGCA | -0.161 |
| ACCGGGGA | 0.0187 |
| ATACTCAT | -0.0194 |
| CGCGTCAG | -0.177 |

| Sequence | PBM E-score |
| --- | --- |
| GAGAGGAA | 0.128 |
| AATCAAAT | 0.0954 |
| AGAAAGGA | -0.143 |
| ATTTAACA | 0.064 |
| ACCAGAAC | 0.235 |
| AGGCAGGC | -0.103 |
| AGGGTATG | -0.149 |
| ATGGACAA | -0.0343 |
| AACTGTGG | 0.215 |
| CGGAAAAA | 0.265 |
| ATTATCGC | 0.052 |
| CCAATTCC | -0.0267 |
| CATTCAGA | -0.0501 |
| ATCCGCTA | 0.0146 |
| ACACATGT | -0.0657 |
| GCGTGTCC | 0.0745 |
| CATTAACG | -0.121 |
| AAGAATCA | 0.142 |
| ACCTGGGC | -0.141 |
| GGTTGAAC | -0.103 |
| CCCCGGGG | 0.00556 |
| GAAGCACA | 0.117 |
| CAATCCCG | 0.206 |
| ATACCGTG | 0.0206 |
| ACTACTTG | 0.113 |

| Sequence | PBM E-score |
| --- | --- |
| ATTTCTAC | 0.0933 |
| GCACGTGA | -0.271 |
| AACTTAAC | -0.0532 |
| ACCCCGGA | -0.0354 |
| TGTACACA | -0.0143 |
| GCACTCAA | -0.0329 |
| ATATCACG | -0.0835 |
| CGCATAAA | 0.0544 |
| CCTGATTC | -0.0618 |
| ATTAAGAC | -0.0955 |
| CTGACAAA | 0.143 |
| CAACCACA | 0.133 |
| AAAGGATT | -0.161 |
| ATACTGGA | 0.373 |
| AGCACCGA | 0.24 |
| AAAAGGCA | -0.163 |
| AAAGTGCT | -0.043 |
| AACGTACT | -0.107 |
| TCCAATAA | 0.13 |
| ACACATCC | -0.00426 |
| GACTGCAA | -0.102 |
| ACATAGAC | -0.0117 |
| CGCCCCGC | -0.0438 |
| GGTGTTGA | -0.142 |
| AAGGCAAT | -0.23 |

| Sequence | PBM E-score |
| --- | --- |
| AAGCCCAG | 0.0416 |
| ATAGCCTG | -0.14 |
| ACAGGGAA | -0.0504 |
| AGCCCAGC | 0.0981 |
| AATTGTAA | 0.0635 |
| GAGATCTA | -0.214 |
| CATATGAA | -0.143 |
| GTACTCGA | 0.0432 |
| TGTTACAA | 0.0822 |
| ACGCTCGC | 0.0255 |
| AGAGTCTG | 0.0715 |
| GGAGCTAC | 0.00703 |
| AGCTAATC | -0.158 |
| TAGCCAGA | 0.162 |
| GTCCACGA | -0.0295 |
| CTTAAAGA | 0.078 |
| CATAACAG | -0.145 |
| AGGAACGG | 0.0392 |
| CTTTGGTA | 0.0434 |
| ATTAACAC | -0.0815 |
| GCCCACCA | 0.133 |
| AACTTGTA | 0.182 |
| CCCAAGCG | -0.0854 |
| ATTTACCC | 0.0556 |
| GGAGTGTA | -0.218 |

| Sequence | PBM E-score |
| --- | --- |
| ACCATAAA | 0.0682 |
| CCCAATAC | 0.0106 |
| AAGAACCC | 0.274 |
| TAGACGAA | 0.179 |
| AGAGTGCA | -0.073 |
| GAGTGTCA | -0.0878 |
| ACAGTGGA | 0.274 |
| CATAGCTC | -0.189 |
| CGAGCGTA | -0.17 |
| CGATGATA | -0.161 |
| CAGGGTCC | 0.21 |
| CAGATTAC | -0.173 |
| ACGATGTA | -0.187 |
| TAAGACTA | 0.0156 |
| GAGAATCC | 0.236 |
| GAATTTGA | 0.174 |
| AACTCGAG | -0.112 |
| GAAGGGAA | -0.178 |
| AAAGATCG | -0.0554 |
| CGTCTCAG | -0.0166 |
| ACCTCTCC | -0.2 |
| CTTAATAC | 0.0397 |
